Experimental data: PMC4336329 (PLoS ONE, 2015)
The whole screen tested about 310,000 compounds, of which about 14,000 (4.5%) showed an effect of 50% or more. Effects have a minus sign here. The list shows a part of the results.

Target: human ether-à-go-go-related gene (hERG) potassium channel (human, UniProt Q12809)
Assay: primary screen, population patch clamp on CHO cells stably expressing hERG
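Also: peak tail current of the secondary pulse compared with the same well before compound.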

Sequence of human ether-à-go-go-related gene (hERG) potassium channel (Q12809 whole entry, looked up): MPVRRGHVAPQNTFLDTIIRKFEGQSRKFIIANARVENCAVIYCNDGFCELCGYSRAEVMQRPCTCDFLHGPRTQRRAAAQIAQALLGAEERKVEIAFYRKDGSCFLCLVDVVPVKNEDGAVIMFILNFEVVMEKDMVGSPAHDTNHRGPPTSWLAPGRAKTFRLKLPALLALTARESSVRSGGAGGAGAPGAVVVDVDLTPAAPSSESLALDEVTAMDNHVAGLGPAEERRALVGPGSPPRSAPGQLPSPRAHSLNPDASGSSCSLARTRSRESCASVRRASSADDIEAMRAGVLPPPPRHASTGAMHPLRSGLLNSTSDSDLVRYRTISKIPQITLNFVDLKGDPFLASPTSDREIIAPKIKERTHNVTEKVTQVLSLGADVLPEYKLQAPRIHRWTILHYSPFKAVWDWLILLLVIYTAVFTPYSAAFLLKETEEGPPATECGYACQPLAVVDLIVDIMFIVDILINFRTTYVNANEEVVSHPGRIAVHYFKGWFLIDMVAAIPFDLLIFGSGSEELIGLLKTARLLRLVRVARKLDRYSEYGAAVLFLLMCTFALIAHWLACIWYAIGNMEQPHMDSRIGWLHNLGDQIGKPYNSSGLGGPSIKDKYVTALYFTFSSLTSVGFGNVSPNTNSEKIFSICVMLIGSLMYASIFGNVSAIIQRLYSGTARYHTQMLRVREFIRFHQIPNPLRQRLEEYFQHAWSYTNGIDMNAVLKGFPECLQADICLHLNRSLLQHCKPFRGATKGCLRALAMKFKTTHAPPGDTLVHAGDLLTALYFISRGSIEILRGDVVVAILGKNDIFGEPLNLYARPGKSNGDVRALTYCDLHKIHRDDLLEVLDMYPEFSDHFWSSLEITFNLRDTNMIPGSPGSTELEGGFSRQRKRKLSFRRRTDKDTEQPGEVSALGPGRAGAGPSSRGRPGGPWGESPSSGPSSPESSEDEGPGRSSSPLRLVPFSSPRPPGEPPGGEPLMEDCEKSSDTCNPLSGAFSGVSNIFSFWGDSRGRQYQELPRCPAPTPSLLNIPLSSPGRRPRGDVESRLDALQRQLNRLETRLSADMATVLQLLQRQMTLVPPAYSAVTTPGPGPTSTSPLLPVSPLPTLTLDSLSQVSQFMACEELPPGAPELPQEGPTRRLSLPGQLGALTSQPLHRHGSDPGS

**Q.** For Cc1cc(C)n(CCN(C)Cc2cn[nH]c2-c2ccc(F)cc2F)n1, which “hERG current change (%, negative = inhibition) at 10uM” value is on record?
**A.** The value was -3.2%.

**Q.** COc1cc(CNC2CCCC2)cc(OC)c1OC.Cl was tested. Which “hERG current change (%, negative = inhibition) at 10uM” value did it give?
**A.** The value was 5.91%.

**Q.** Which “hERG current change (%, negative = inhibition) at 10uM” value does the source give for COc1ccc(NC(=O)C2CCN(S(=O)(=O)c3c(C)noc3C)CC2)cc1Cl here?
**A.** Its value is 0.74%.

**Q.** With COc1cccc(OCC(O)CN2CCN(c3ccccc3)CC2)c1.Cl (stereo not drawn) as the compound, how does the “hERG current change (%, negative = inhibition) at 10uM” value read?
**A.** Its value is -43.4%.

**Q.** O=C(Nc1cccc(Cl)c1)OCc1cnc(Cl)s1 was tested. Which “hERG current change (%, negative = inhibition) at 10uM” value did it give?
**A.** Its value is -1.8%.

**Q.** How did the “hERG current change (%, negative = inhibition) at 10uM” value turn out when CCn1cc(S(=O)(=O)NC(C)c2cc(OC)ccc2OC)cn1 (stereo not drawn) was run?
**A.** Its value is 1.25%.

**Q.** With CC(C)C(=O)N1N=C2CCCCC2C1(O)C(F)(F)F (stereo not drawn) as the compound, how does the “hERG current change (%, negative = inhibition) at 10uM” value read?
**A.** The value was 15.1%.

**Q.** How did the “hERG current change (%, negative = inhibition) at 10uM” value turn out when Cc1ccc(SCC(=O)OCC(=O)NC2(C#N)CCCCC2)cc1 was run?
**A.** The value was -3.35%.

**Q.** Which “hERG current change (%, negative = inhibition) at 10uM” value does the source give for COc1ccc(NC(=O)c2ccccc2)cc1NS(=O)(=O)c1ccc(F)cc1 here?
**A.** Its value is -6.06%.

**Q.** CCCCn1c(N2CCC(Cc3ccccc3)CC2)nc2c1c(=O)[nH]c(=O)n2C was tested. Which “hERG current change (%, negative = inhibition) at 10uM” value did it give?
**A.** The value was -49.4%.

**Q.** With O=c1[nH]c2cnccc2n1-c1ccccc1 as the compound, how does the “hERG current change (%, negative = inhibition) at 10uM” value read?
**A.** Its value is 9.04%.

**Q.** For COc1ccc2nc(NC(=O)c3cccnc3SC)sc2c1, which “hERG current change (%, negative = inhibition) at 10uM” value is on record?
**A.** The value was 14.4%.

**Q.** With O=C(Nc1cnn(Cc2c(Cl)cccc2Cl)c1)C(c1ccccc1)c1ccccc1 as the compound, how does the “hERG current change (%, negative = inhibition) at 10uM” value read?
**A.** Its value is 1.08%.

**Q.** How did the “hERG current change (%, negative = inhibition) at 10uM” value turn out when c1ccc(-c2nnn(C34CC5CC(CC(C5)C3)C4)n2)cc1 was run?
**A.** The value was 0.389%.

**Q.** For CN(C)C(=O)COc1ccc(Br)cc1, which “hERG current change (%, negative = inhibition) at 10uM” value is on record?
**A.** Its value is 2.6%.

**Q.** How did the “hERG current change (%, negative = inhibition) at 10uM” value turn out when O=C(NCc1ccc2c(c1)OCO2)C(C(=O)c1ccccc1)n1cc(Cl)ccc1=O (stereo not drawn) was run?
**A.** Its value is 12.4%.

**Q.** Which “hERG current change (%, negative = inhibition) at 10uM” value does the source give for C=CCOc1ccc(/C=C/C(=O)OCc2csc(CC(=O)Nc3ccccc3C)n2)cc1 here?
**A.** The value was 19%.

**Q.** CSCCC(N=C1NS(=O)(=O)c2ccccc21)C(=O)N1CCCC(C(N)=O)C1 (stereo not drawn) was tested. Which “hERG current change (%, negative = inhibition) at 10uM” value did it give?
**A.** Its value is 4.07%.

**Q.** With c1ccc(-c2cn3nc(-c4ccccc4)c(-c4ccccc4)nc3n2)cc1 as the compound, how does the “hERG current change (%, negative = inhibition) at 10uM” value read?
**A.** The value was 5.34%.

**Q.** With CCn1c(SCC(=O)Nc2ccc(OCc3ccccc3)cc2)nnc1-c1ccco1 as the compound, how does the “hERG current change (%, negative = inhibition) at 10uM” value read?
**A.** The value was -0.171%.

**Q.** For CC(C)N(C(=O)CSc1nnc(Cc2ccc3c(c2)OCO3)n1C)C(C)C, which “hERG current change (%, negative = inhibition) at 10uM” value is on record?
**A.** Its value is -7.02%.

**Q.** How did the “hERG current change (%, negative = inhibition) at 10uM” value turn out when COc1cc(SC)ccc1C(=O)NCCOc1ccc(Cl)cc1 was run?
**A.** The value was -21.3%.

**Q.** For CCOc1ccc(CCNC(=O)CN2C(=O)NC3(CCCC3)C2=O)cc1OCC, which “hERG current change (%, negative = inhibition) at 10uM” value is on record?
**A.** Its value is 6.57%.

**Q.** Which “hERG current change (%, negative = inhibition) at 10uM” value does the source give for Cc1ccccc1-c1nc(CS(=O)(=O)CC(=O)NC2CC2)c(C)o1 here?
**A.** Its value is 12.5%.

**Q.** With CCN(CC(=O)Nc1ccc(OC)cc1)C(=O)Cc1ccsc1 as the compound, how does the “hERG current change (%, negative = inhibition) at 10uM” value read?
**A.** The value was 4.6%.

**Q.** For COc1ccc(OC)c(CN2CCN(C(=O)c3ccco3)CC2)c1.O=C(O)C(=O)O, which “hERG current change (%, negative = inhibition) at 10uM” value is on record?
**A.** The value was 0.201%.

**Q.** How did the “hERG current change (%, negative = inhibition) at 10uM” value turn out when CC(NC(=O)CCCc1nnc2n(C)c(=O)c3sccc3n12)c1ccccc1 (stereo not drawn) was run?
**A.** The value was -12.6%.

**Q.** Which “hERG current change (%, negative = inhibition) at 10uM” value does the source give for Cc1cccc(NS(=O)(=O)c2cccc(C(=O)N3CCCCCCC3)c2)c1 here?
**A.** The value was -30.1%.

**Q.** How did the “hERG current change (%, negative = inhibition) at 10uM” value turn out when Cc1cc(NC(=O)C2C3C(=O)N(CCC(C)C)C(C(=O)NCc4ccccc4)C34C=CC2(C)O4)no1 (stereo not drawn) was run?
**A.** Its value is 16.2%.

**Q.** For Cc1ccccc1-n1c(-c2csc3ccccc23)n[nH]c1=S, which “hERG current change (%, negative = inhibition) at 10uM” value is on record?
**A.** Its value is 6.92%.

**Q.** Which “hERG current change (%, negative = inhibition) at 10uM” value does the source give for COc1cccc(C(=O)N/N=C(\C)c2cccc(NC(=O)c3ccc(F)cc3)c2)c1OC here?
**A.** Its value is -35.8%.

**Q.** Which “hERG current change (%, negative = inhibition) at 10uM” value does the source give for CNc1ccc(Br)cc(C(=O)/C=C/c2ccc(Cl)cc2Cl)c1=O here?
**A.** The value was -8.01%.

**Q.** Which “hERG current change (%, negative = inhibition) at 10uM” value does the source give for COCCn1c(C)cc(C(=O)COc2ccc(C)nc2[N+](=O)[O-])c1C here?
**A.** The value was -2.42%.

**Q.** With COc1cccc(-c2nc(CS(=O)(=O)CC(=O)Nc3cccc(C(C)=O)c3)c(C)o2)c1 as the compound, how does the “hERG current change (%, negative = inhibition) at 10uM” value read?
**A.** The value was 17%.

**Q.** How did the “hERG current change (%, negative = inhibition) at 10uM” value turn out when O=C(COC(=O)c1ccc(F)cc1F)Nc1ccc(Cl)cn1 was run?
**A.** Its value is -3.65%.

**Q.** For CC(=O)c1ccc(NC(=O)CC2Nc3cccc4cccc(c34)NC2=O)cc1 (stereo not drawn), which “hERG current change (%, negative = inhibition) at 10uM” value is on record?
**A.** Its value is 14%.

**Q.** How did the “hERG current change (%, negative = inhibition) at 10uM” value turn out when COc1cccc(CNC(=O)CCCn2nc(C)c3c(C)n(-c4ccc(C)cc4)nc3c2=O)c1OC was run?
**A.** Its value is 11%.

**Q.** O=c1[nH]c(C2CCN(S(=O)(=O)Cc3ccccc3)CC2)nc2c1nnn2Cc1ccccc1Cl was tested. Which “hERG current change (%, negative = inhibition) at 10uM” value did it give?
**A.** Its value is 21.5%.

**Q.** Which “hERG current change (%, negative = inhibition) at 10uM” value does the source give for Cc1ccc(C)c(C(=O)CN2C(=O)c3ccccc3S2(=O)=O)c1 here?
**A.** Its value is 14.3%.

**Q.** How did the “hERG current change (%, negative = inhibition) at 10uM” value turn out when CC(C)(C)NC(=O)NCC1CCCC1NC(=O)NC(C)(C)C (stereo not drawn) was run?
**A.** The value was 15.3%.

**Q.** For CN1CCN(CCCNC(=O)CCCOc2cc(=O)n(C)c3ccccc23)CC1, which “hERG current change (%, negative = inhibition) at 10uM” value is on record?
**A.** The value was 0.289%.

**Q.** How did the “hERG current change (%, negative = inhibition) at 10uM” value turn out when FC(F)(F)c1cc(CCN2C(=S)NC[C@@H]2Cc2ccccc2)cc(C(F)(F)F)c1 was run?
**A.** Its value is 17.6%.

**Q.** CCc1ccc(N2C(=O)Nc3ccccc3C2(O)C(=O)N2CCN(c3ccccn3)CC2)cc1 (stereo not drawn) was tested. Which “hERG current change (%, negative = inhibition) at 10uM” value did it give?
**A.** The value was -5.24%.

**Q.** For CCCC(=O)Nc1ccc(N2CCCCC2)cc1, which “hERG current change (%, negative = inhibition) at 10uM” value is on record?
**A.** Its value is -8.42%.

**Q.** Which “hERG current change (%, negative = inhibition) at 10uM” value does the source give for CCOC(=O)C1CCCN(C(=O)c2ccc(Cl)c(S(=O)(=O)N3CCCCCC3)c2)C1 (stereo not drawn) here?
**A.** Its value is -70.7%.

**Q.** For COc1ccc(CCn2c([O-])cc3nn(-c4nc5ccccc5s4)c(=O)c-3c2C)cc1, which “hERG current change (%, negative = inhibition) at 10uM” value is on record?
**A.** The value was 10.2%.

**Q.** How did the “hERG current change (%, negative = inhibition) at 10uM” value turn out when C[C@@H](C(=O)Nc1ccc2ccccc2c1)[C@@H]1C[C@@]1(C)[C@@H](NC(=O)c1ccccc1)c1ccccc1 was run?
**A.** Its value is -10.1%.

**Q.** How did the “hERG current change (%, negative = inhibition) at 10uM” value turn out when COc1cccc(C(=O)Oc2ccc(/C=N/Nc3ccc(C(=O)O)cc3)cc2OC)c1 was run?
**A.** Its value is 21.7%.

**Q.** Which “hERG current change (%, negative = inhibition) at 10uM” value does the source give for O=C(Cc1cccs1)N1CCN=C1SCc1ccc(Br)cc1 here?
**A.** Its value is 0.534%.

**Q.** How did the “hERG current change (%, negative = inhibition) at 10uM” value turn out when O=C(CCCN1C(=O)c2cccc3cccc(c23)C1=O)N1CCN(c2ccccn2)CC1 was run?
**A.** Its value is -11.9%.

**Q.** How did the “hERG current change (%, negative = inhibition) at 10uM” value turn out when O=C(Nc1ccc(O)cc1)C1CCCN1S(=O)(=O)c1ccc(F)cc1 (stereo not drawn) was run?
**A.** The value was -1.44%.

**Q.** Which “hERG current change (%, negative = inhibition) at 10uM” value does the source give for COc1ccc(NC(=O)c2ccc(CNc3c(NC4CCCCC4)c(=O)c3=O)cc2)cc1OC here?
**A.** Its value is -24.2%.

**Q.** For CSCC[C@H](NC(=O)OC(C)(C)C)c1nnc(SCC=C(C)C)o1, which “hERG current change (%, negative = inhibition) at 10uM” value is on record?
**A.** The value was -29.1%.

**Q.** CC(=O)NN1C(=O)c2ccc(Oc3cccc([N+](=O)[O-])c3)cc2C1=O was tested. Which “hERG current change (%, negative = inhibition) at 10uM” value did it give?
**A.** Its value is -28.7%.
